# PubChem BioAssay (Tox21)
# Inconclusive means that the source gave no clear call. Such entries were picked first, then a sample of the others. Where a call stands in place of a potency, no number is given. For part of these data: Potencies beside an inconclusive call are fits to weak or partial responses and may not hold up. Calls of active or inactive are those of the source. Unless noted, the call rests on the fitted dose curve; in most records, active means well fitted curve in the direction sought with a large enough effect in the repeat runs; inconclusive means weak or mixed curves; inactive means no such curve, though single readings can be large; an effect the other way counts as inactive or inconclusive.
# Columns and labels:
# [1] = biological target: Estrogen receptor (Homo sapiens) (UniProt P03372); test: qHTS assay to identify small molecule antagonists of the estrogen receptor alpha (ER-alpha) signaling pathway (AID 743069; active means well fitted curve in the direction sought with a large enough effect in the signal ratio in the repeat runs, not every such curve was filed as active; inconclusive means weak or mixed curves, or effect the other way; inactive means no such curve, though single readings can be large or run the other way; the % refers to the signal ratio; further: potency means the concentration at half of the fitted maximal effect); conditions: HEK293 ER-alpha-UAS-bla, beta-lactamase ratio, antagonist mode; activity, negative = inhibition: at 69.4 µM (top of the series) unless noted
# UniProt P03372, sequence (P03372 whole entry, looked up): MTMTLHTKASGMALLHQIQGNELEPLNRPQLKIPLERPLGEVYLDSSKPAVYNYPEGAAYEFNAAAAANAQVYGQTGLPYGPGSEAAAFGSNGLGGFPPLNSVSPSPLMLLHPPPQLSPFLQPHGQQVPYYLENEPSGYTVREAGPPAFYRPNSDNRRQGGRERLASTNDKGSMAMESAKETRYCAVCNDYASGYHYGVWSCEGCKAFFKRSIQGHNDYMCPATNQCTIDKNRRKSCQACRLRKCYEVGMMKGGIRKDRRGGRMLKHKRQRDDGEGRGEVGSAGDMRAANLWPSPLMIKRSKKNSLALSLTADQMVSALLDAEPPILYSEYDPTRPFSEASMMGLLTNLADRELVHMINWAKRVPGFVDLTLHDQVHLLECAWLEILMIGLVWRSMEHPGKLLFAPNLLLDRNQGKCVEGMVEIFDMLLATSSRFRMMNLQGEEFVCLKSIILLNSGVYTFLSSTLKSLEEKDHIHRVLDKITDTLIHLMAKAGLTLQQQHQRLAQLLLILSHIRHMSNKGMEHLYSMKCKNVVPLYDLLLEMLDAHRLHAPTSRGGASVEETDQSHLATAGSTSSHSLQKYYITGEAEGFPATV
# In short: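 HEK293 cells stably carrying an ER-alpha-UAS-bla beta-lactamase reporter were pre-cultured overnight in 2% charcoal-stripped FBS medium. Test compounds in DMSO were added together with 17beta-estradiol for 18 hr at 37C. Read-out was fluorescence after 2 hr with LiveBLAzer B/G FRET substrate at room temperature.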
# [2] = biological target: Peroxisome proliferator-activated receptor gamma (Homo sapiens) (UniProt P37231); test: qHTS assay to identify small molecule agonists of the peroxisome proliferator-activated receptor gamma (PPARg) signaling pathway (AID 743094; active means well fitted activation curve with a large enough effect in the signal ratio in the repeat runs, not every such curve was filed as active; inconclusive means weak or mixed curves, or effect the other way; inactive means no such curve, though single readings can be large or run the other way; the % refers to the signal ratio); conditions: HEK293H PPARg-UAS-bla, beta-lactamase FRET ratio, 17 h; activation: at 57 µM (top of the series) unless noted
# UniProt P37231, sequence (P37231 whole entry, looked up): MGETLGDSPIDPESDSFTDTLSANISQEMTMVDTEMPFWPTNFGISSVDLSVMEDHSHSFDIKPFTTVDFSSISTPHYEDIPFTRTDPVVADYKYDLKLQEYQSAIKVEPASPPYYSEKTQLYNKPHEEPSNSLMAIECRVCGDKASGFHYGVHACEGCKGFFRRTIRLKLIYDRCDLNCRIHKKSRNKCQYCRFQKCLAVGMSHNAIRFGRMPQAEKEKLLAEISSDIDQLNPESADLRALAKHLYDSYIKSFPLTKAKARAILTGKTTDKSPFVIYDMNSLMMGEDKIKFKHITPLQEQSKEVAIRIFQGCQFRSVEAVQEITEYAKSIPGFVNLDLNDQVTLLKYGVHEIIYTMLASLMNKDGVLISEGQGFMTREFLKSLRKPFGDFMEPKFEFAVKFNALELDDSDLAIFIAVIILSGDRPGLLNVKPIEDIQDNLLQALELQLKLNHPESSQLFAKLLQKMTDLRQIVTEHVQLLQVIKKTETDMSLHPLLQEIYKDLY
# In short: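 Stably transfected HEK293H cells (GeneBLAzer PPARg UAS-bla) were incubated with test substances for 17 h at 37C after a 5 h pre-incubation; beta-lactamase activity was then detected by FRET substrate fluorescence.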
# [3] = qHTS RealTime-Glo MT Cell Viability Assay in HEK293 cells - 32 hour (AID 1224868); further: nearly all actives have a fitted effect of over 50% in size; further: potency means the concentration at half of the fitted maximal effect
# In short: (§1)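 HEK293 cells seeded with NanoLuc/prosubstrate reagent, rested 5 h at 37 C, then dosed and kept at 37 C up to 40 h. Nonlytic real-time luminescence from viable cells read at 0, 8, 16, 24, 32 and 40 h.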
# [4] = biological target: Estrogen receptor (Homo sapiens) (UniProt P03372); test: qHTS assay to identify small molecule agonists of the estrogen receptor alpha (ER-alpha) signaling pathway using the BG1 cell line (AID 743079); conditions: BG1Luc4E2 cells, ERE-luciferase agonist, 22 h; activation: at 70.3 µM (top of the series) unless noted; further: nearly all actives have a fitted effect of over 20% in size
# [5] = biological target: Bile acid receptor (Homo sapiens) (UniProt Q96RI1); test: qHTS assay to identify small molecule antagonists of the farnesoid-X-receptor (FXR) signaling pathway (AID 743217; active means well fitted inhibition curve with a large enough effect in the signal ratio in the repeat runs, not every such curve was filed as active; inconclusive means weak or mixed curves, or effect the other way; inactive means no such curve, though single readings can be large or run the other way; the % refers to the signal ratio); conditions: HEK293T FXR-UAS-bla, beta-lactamase ratio, CDCA-stimulated, 16 h; activity change, negative = inhibition: at 62.6 µM (top of the series) unless noted
# UniProt Q96RI1, sequence (Q96RI1 whole entry, looked up): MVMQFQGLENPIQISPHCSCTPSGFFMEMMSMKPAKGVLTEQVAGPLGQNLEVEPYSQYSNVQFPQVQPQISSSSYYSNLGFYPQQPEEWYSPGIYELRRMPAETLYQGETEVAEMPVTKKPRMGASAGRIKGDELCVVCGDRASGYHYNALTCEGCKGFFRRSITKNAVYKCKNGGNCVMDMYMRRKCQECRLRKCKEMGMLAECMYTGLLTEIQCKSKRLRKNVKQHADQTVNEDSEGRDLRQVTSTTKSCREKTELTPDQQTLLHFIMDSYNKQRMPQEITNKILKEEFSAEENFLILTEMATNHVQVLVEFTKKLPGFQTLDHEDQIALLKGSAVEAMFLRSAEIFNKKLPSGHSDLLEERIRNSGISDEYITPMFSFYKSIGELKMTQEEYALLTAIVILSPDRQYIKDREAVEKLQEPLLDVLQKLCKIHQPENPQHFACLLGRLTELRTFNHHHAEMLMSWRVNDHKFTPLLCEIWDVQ
# In short: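 Beta-lactamase reporter under UAS control in HEK 293T cells; compound exposure 16 h at 37 °C in the presence of chenodeoxycholic acid (50 uM final); signal from B/G FRET substrate after 2 h at room temperature.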
# [6] = qHTS assay to identify small molecule agonists of the farnesoid-X-receptor (FXR) signaling pathway - cell viability counter screen (AID 743218); conditions: FXR-bla HEK293T viability, CellTiter-Glo luminescence, 16 h; viability change, negative = cytotoxic: at 62.6 µM (top of the series) unless noted; further: nearly all actives have a fitted effect of over 45% in size; further: potency means the concentration at half of the fitted maximal effect
# In short: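 In GeneBLAzer FXR-UAS-bla HEK 293T cells, compounds act for 16 h at 37 C. Cell viability is then scored in the reporter wells by CellTiter-Glo, 30 min at RT, luminescence.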
# [7] = qHTS assay to identify small molecule agonists of H2AX (AID 1224845; active means well fitted activation curve with a large enough effect in the signal ratio in the repeat runs, not every such curve was filed as active; inconclusive means weak or mixed curves; the % refers to the signal ratio; further: potency means the concentration at half of the fitted maximal effect); conditions: CHO-K1 phospho-H2AX Ser139 HTRF, 3 h; activation (H2AX phosphorylation): at 154 µM (top of the series) unless noted
# In short: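 Wild-type CHO-K1 cells plated overnight, then exposed 3 hr at 37C to compounds at 15 concentrations (0.76% DMSO). Lysed, then HTRF anti-pH2AX(S139)-cryptate/anti-H2AX-d2 detection after 24 hr at room temperature; emissions 665 and 620 nm.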
# [8] = qHTS assay to identify small molecule antagonists of the estrogen receptor alpha (ER-alpha) signaling pathway - cell viability counter screen (AID 743074; calls by dose curve; further: nearly all actives have a fitted effect of over 45% in size; further: potency means the concentration at half of the fitted maximal effect)
# [9] = qHTS assay for identifying genotoxic compounds that show differential cytotoxicity against isogenic chicken DT40 cell lines with known DNA damage response pathways - Rad54/Ku70 mutant cell line (AID 743015); conditions: DT40 Rad54/Ku70 mutant viability, CellTiter-Glo, 40 h; activity change, negative = cytotoxicity: at 66.8 µM (top of the series) unless noted; further: nearly all actives have a fitted effect of over 60% in size
# [10] = qHTS assay to identify small molecule agonists of the hypoxia (HIF-1) signaling pathway (AID 1224846; active means well fitted activation curve with a large enough effect in the signal ratio in the repeat runs, not every such curve was filed as active; inconclusive means weak or mixed curves; the % refers to the signal ratio); conditions: HRE-bla ME-180 cells, beta-lactamase ratio, 17 h; activation: at 76.8 µM (top of the series) unless noted
# In short: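 Measured by blue/green FRET after loading CCF4-AM: beta-lactamase expressed from a hypoxia response element in ME-180 cells. Test agents were delivered in DMSO and left 17 hrs; cells had been plated 5 hrs earlier in low-serum (0.5% dialyzed FBS) medium.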
# [11] = qHTS assay to identify small molecule antagonists of the estrogen related receptor (ERR) signaling pathway from Tox21 library (AID 1224848); further: nearly all actives have a fitted effect of over 50% in size; further: potency means the concentration at half of the fitted maximal effect
# In short: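 Cells: ERR line, 2,000/well; 6 h preincubation 37 C/5% CO2. Cpd in DMSO via pin tool; 18 h, 37 C. ONE-Glo, 30 min RT, luminescence.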
# [12] = qHTS assay to identify small molecule antagonists of the peroxisome proliferator-activated receptor gamma (PPARg) signaling pathway - cell viability counter screen (AID 743194); conditions: PPARg-bla HEK293H viability, CellTiter-Glo luminescence, 17 h, co-treated with 50 nM rosiglitazone; activity change, negative = cytotoxicity: at 62.6 µM (top of the series) unless noted; further: nearly all actives have a fitted effect of over 55% in size
# In short: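 PPARg-UAS-bla HEK293H cells were plated, rested 5 h at 37 C, then treated with compounds plus rosiglitazone (50 nM final) for 17 h at 37 C; viability was then read by CellTiter-Glo luminescence after 30 min at room temperature.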
# [13] = qHTS assay to identify small molecule agonists of the vitamin D receptor (VDR) signaling pathway - cell viability counter screen (AID 743224); further: nearly all actives have a fitted effect of over 50% in size
# In short: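 VDR-bla cell line, quantitative HTS format; 16 h compound incubation (37C, 5% CO2); ATP-based CellTiter-Glo luminescence measured in the reporter assay wells.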
# [14] = biological target: Estrogen receptor beta (Homo sapiens) (UniProt Q92731); test: qHTS assay to identify small molecule agonists of the estrogen receptor beta (ER-beta) signaling pathway (AID 1259377; active means well fitted activation curve with a large enough effect in the signal ratio in the repeat runs, not every such curve was filed as active; inconclusive means weak or mixed curves, or effect the other way; the % refers to the signal ratio; further: potency means the concentration at half of the fitted maximal effect); conditions: ER-beta-UAS-bla HEK293T, beta-lactamase FRET ratio, 16 h; activation: at 92.4 µM (top of the series) unless noted
# UniProt Q92731, sequence (Q92731 whole entry, looked up): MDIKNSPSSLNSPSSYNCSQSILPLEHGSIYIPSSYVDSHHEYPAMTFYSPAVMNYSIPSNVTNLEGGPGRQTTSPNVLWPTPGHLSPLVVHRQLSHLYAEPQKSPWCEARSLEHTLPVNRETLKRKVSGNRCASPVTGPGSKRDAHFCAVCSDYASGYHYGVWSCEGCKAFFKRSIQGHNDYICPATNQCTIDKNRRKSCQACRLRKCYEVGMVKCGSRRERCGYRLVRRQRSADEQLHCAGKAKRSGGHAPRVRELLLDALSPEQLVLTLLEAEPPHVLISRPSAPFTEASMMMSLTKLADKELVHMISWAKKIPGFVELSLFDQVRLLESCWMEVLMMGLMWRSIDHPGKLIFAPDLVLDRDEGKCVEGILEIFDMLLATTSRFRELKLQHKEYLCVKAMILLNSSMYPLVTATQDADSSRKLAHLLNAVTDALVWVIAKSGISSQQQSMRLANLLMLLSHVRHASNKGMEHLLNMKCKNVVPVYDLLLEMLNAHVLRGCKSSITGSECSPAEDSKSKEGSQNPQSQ
# In short: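 Ratiometric beta-lactamase FRET read-out came after 2 h substrate loading at room temperature. It followed 16 h compound treatment at 37C of GripTite HEK293T cells carrying a UAS-bla reporter, plated in 2% charcoal-stripped FBS medium.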
# [15] = qHTS assay to identify small molecule antagonists of the progesterone receptor (PR) signaling pathway - cell viability counter screen (AID 1346798); further: nearly all actives have a fitted effect of over 50% in size; further: potency means the concentration at half of the fitted maximal effect
# In short: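 Cytotoxicity read as CellTiter-Glo luminescence (30 min, room temperature) in the same wells as the beta-lactamase readout. HEK293T PR-UAS-bla cells in charcoal-stripped 2% FBS received compound and R5020, then 16 h at 37C, 5% CO2.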
# [16] = qHTS assay to identify small molecule antagonists of the vitamin D receptor (VDR) signaling pathway - cell viability counter screen (AID 743225); conditions: VDR-bla HEK293T viability, CellTiter-Glo luminescence, 16 h; viability change, negative = cytotoxic: at 61 µM (top of the series) unless noted; further: nearly all actives have a fitted effect of over 50% in size; further: potency means the concentration at half of the fitted maximal effect
# In short: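 Cytotoxicity counter screen read by CellTiter-Glo luminescence (30 min, room temperature) in the same wells as the VDR-bla antagonist readout. HEK 293T VDR-UAS-bla cells had 16 h at 37C with compound and 3 nM (final) 1-alpha,25-dihydroxyvitamin D3, then 2 h with FRET substrate.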
# [17] = biological target: Nuclear receptor subfamily 1 group I member 2 (Homo sapiens) (UniProt O75469); test: Human pregnane X receptor (PXR) small molecule agonists, qHTS assay (AID 1346982); further: nearly all actives have a fitted effect of over 35% in size; further: potency means the concentration at half of the fitted maximal effect
# UniProt O75469, sequence (O75469 whole entry, looked up): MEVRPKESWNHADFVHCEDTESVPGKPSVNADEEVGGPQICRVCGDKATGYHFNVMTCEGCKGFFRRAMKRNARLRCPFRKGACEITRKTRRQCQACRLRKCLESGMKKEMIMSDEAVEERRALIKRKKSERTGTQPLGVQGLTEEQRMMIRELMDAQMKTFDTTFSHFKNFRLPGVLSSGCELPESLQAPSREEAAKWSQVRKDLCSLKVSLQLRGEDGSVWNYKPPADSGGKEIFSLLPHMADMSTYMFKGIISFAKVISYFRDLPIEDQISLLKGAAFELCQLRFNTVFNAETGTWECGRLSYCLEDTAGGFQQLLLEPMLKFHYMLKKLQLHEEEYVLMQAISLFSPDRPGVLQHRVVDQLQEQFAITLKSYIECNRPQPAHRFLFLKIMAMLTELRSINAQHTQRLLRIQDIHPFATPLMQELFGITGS
# In short: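 Luminescence (ONE-Glo, 30 min RT) after 24 hr compound exposure of PXR-Luc HepG2 cells; cells rested 5 hr post-plating in 5% charcoal-stripped FBS medium.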
# [18] = qHTS RealTime-Glo MT Cell Viability Assay in HepG2 cells - 24 hour (AID 1224867); further: nearly all actives have a fitted effect of over 50% in size; further: potency means the concentration at half of the fitted maximal effect
# In short: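 HepG2 cells (600/well) were dispensed with RealTime-Glo reagents, incubated 5 h at 37 °C, then treated with compounds in DMSO for up to 40 h. Nonlytic NanoLuc luminescence reflecting viable cells was read at each stated time point.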
# [19] = qHTS RealTime-Glo MT Cell Viability Assay in HEK293 cells - 16 hour (AID 1224872); further: nearly all actives have a fitted effect of over 50% in size; further: potency means the concentration at half of the fitted maximal effect; on activity change, negative = cytotoxicity: top concentration of the series differs between compounds
# In short: as §1
# [20] = A CellTox Green Cytotoxicity Assay to monitor cytotoxicity in HEK293 cells - 40 hour (AID 1224871); further: potency means the concentration at half of the fitted maximal effect; nearly all actives have a fitted effect of over 45% in size
# In short: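 Each value comes from one timepoint of a single continuous run in which HEK293 cells with CellTox Green were exposed to compound for up to 40 h at 37 C, dye fluorescence rising with cell death.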
# Tags describe the fitted curve by direction and shape or compound fluorescence and quenching.
smiles,measurement,setting,value
CCC1(C)CC(=O)NC1=O (configuration not stated),Potency,[1],inactive
same,Potency,[2],inactive
same,Potency,[3],inactive
C[C@@H](O)[C@H]1C(=O)N2C(C(=O)O)=C(S[C@@H]3CN[C@H](CNS(N)(=O)=O)C3)[C@H](C)[C@H]12,activation,[4],inconclusive: 11.9% [phenotype inactive]
same,Potency,[5],inactive
same,Potency,[6],"inconclusive: 11.9 µM [rising, single point]"
same,Potency,[7],"inconclusive: 55.2 µM [rising, single point]"
N[C@H](C(=O)O)[C@@H](O)c1ccc(O)c(O)c1,Potency,[7],"inconclusive: 39.1 µM [falling, partial curve]"
O=C1NC2NC(=O)NC2N1 (configuration not stated),activation,[2],inconclusive: -1.45%
same,Potency,[6],inactive
same,Potency,[3],inactive
Cc1c(N)cccc1Cl,Potency,[8],"inconclusive: 61.7 µM [rising, partial curve, poor fit]"
same,activation,[4],inconclusive: 5.51% [phenotype inactive]
same,Potency,[2],inactive
same,Potency,[7],inactive
CC(CSC(=O)c1ccccc1)C(=O)N1C[C@@H](Sc2ccccc2)C[C@H]1C(=O)O (some centres not stated),Potency,[9],inactive
same,Potency,[2],inactive
same,activation,[10],inactive: 0.628% [at 15.8 µM]
same,"activity, negative = inhibition",[11],inactive: -0.558% [at 19 µM]
CC(C)NCC(O)COc1ccc(CCOCC2CC2)cc1 (configuration not stated),Potency,[12],inactive
same,Potency,[13],inactive
same,Potency,[7],inactive
same,Potency,[14],inactive
same,Potency,[15],inactive
CC(C)=CC(C)(C)C,Potency,[9],inactive
same,Potency,[12],inactive
same,Potency,[10],inactive
CCOCC(C)O (configuration not stated),Potency,[16],"inconclusive: 19.5 µM [cytotoxic, single point]"
same,Potency,[10],inactive
same,Potency,[15],inactive
same,Potency,[17],"inconclusive: 68.6 µM [activator, single point]"
CS(=O)(=O)c1ccc([C@@H](CC2CCCC2)C(=O)Nc2cnccn2)cc1Cl,Potency,[18],"inconclusive: 49 µM [falling, partial curve, poor fit]"
same,Potency,[3],"inconclusive: 123 µM [cytotoxic, partial curve, poor fit]"
same,Potency,[19],"inconclusive: 49 µM [cytotoxic, partial curve]"
same,Potency,[15],inconclusive: 27.3 µM
NC(CCC(=O)O)C(=O)O (configuration not stated),Potency,[16],inactive
same,Potency,[10],inactive
Cc1ccccc1OCC(O)CO (configuration not stated),Potency,[8],"inconclusive: 26.8 µM [rising, single point]"
same,Potency,[13],inactive
same,Potency,[7],inactive
same,Potency,[14],inactive
CCCCNCC,Potency,[1],inactive
same,Potency,[12],inactive
same,Potency,[16],inactive
same,Potency,[7],inactive
CC(C)(C)OC=O,Potency,[9],inactive
same,Potency,[16],inactive
same,Potency,[7],inactive
same,Potency,[14],inactive
same,Potency,[15],"inconclusive: 63.5 µM [rising, partial curve]"
same,Potency,[17],inactive
CC(=O)Nc1c(I)cc(I)c(C(=O)O)c1I,"activity, negative = inhibition",[1],inconclusive: 20.8%
same,Potency,[7],inactive
same,Potency,[14],"inconclusive: 10.6 µM [fluorescent, partial curve]"
CCCO[Si](OCCC)(OCCC)OCCC,Potency,[12],inactive
same,Potency,[13],inactive
same,Potency,[10],inactive
same,Potency,[14],inactive
O=[N+]([O-])c1ccccc1C(F)(F)F,Potency,[8],"inconclusive: 21.4 µM [rising, single point]"
same,Potency,[10],inactive
same,activation,[14],inconclusive: 19%
CCN(CC)C(=O)C1CN2CCc3cc(OC)c(OC)cc3C2CC1OC(C)=O (configuration not stated),Potency,[6],active: 0.237 µM
same,Potency,[18],inactive
CCn1cc(C(=O)O)c(=O)c2cc(F)c(N3CCN(C)CC3)cc21,Potency,[1],"inconclusive: 13.4 µM [activator, partial curve, poor fit]"
same,Potency,[12],inactive
same,"activity change, negative = cytotoxicity",[19],inactive: 4.51% [at 15.8 µM]
CC(=O)Nc1ccc(OCCOCCOc2ccc(NC(C)=O)cc2)cc1,Potency,[11],"inconclusive: 26.6 µM [inhibitor, partial curve, poor fit]"
C=C(C)C(=O)OCCCCCCCC(C)C,Potency,[12],inactive
same,Potency,[7],inactive
same,Potency,[17],active: 0.87 µM
CCC(=O)CC,Potency,[5],inactive
same,Potency,[13],inactive
same,Potency,[16],"inconclusive: 1.1 µM [cytotoxic, single point]"
same,Potency,[7],inactive
COc1nc(N)nc2c1ncn2[C@@H]1O[C@H](CO)[C@@H](O)[C@@H]1O,Potency,[8],inactive
same,Potency,[12],inactive
same,Potency,[7],"inconclusive: 0.0196 µM [activator, full curve]"
same,Potency,[15],inactive
COC(/C=C(\C)CCC=C(C)C)OC,Potency,[10],inactive
same,Potency,[18],inactive
COc1cc2c(cc1OC)CN(C(=O)[C@H](C)N[C@@H](CCc1ccccc1)C(=O)O)[C@H](C(=O)O)C2,activation (H2AX phosphorylation),[7],inconclusive: -1.09% [at 70.9 µM]
CCO[Si](C)(C)OCC,Potency,[10],inactive
same,Potency,[18],inactive
CC(C)CCOC(=O)CC(C)C,Potency,[9],inactive
same,Potency,[5],inactive
same,Potency,[10],inactive
same,Potency,[20],"inconclusive: 54.9 µM [activator, single point]"
